{
  "source": "PubChem BioAssay (NCI)",
  "test_in_all_cases": "NCI-60 cell line screen, 48 h",
  "key": {"T-47D breast": {"system": "T-47D breast"}, "SNB-19 CNS": {"system": "SNB-19 CNS"}, "SF-295 CNS": {"system": "SF-295 CNS"}, "HL-60(TB) leukemia": {"system": "HL-60(TB) leukemia"}, "MALME-3M melanoma": {"system": "MALME-3M melanoma"}, "HCC-2998 colon": {"system": "HCC-2998 colon"}, "NCI-H460 lung": {"system": "NCI-H460 lung"}, "OVCAR-8 ovarian": {"system": "OVCAR-8 ovarian"}, "CCRF-CEM leukemia": {"system": "CCRF-CEM leukemia"}, "786-0 renal": {"system": "786-0 renal"}, "MOLT-4 leukemia": {"system": "MOLT-4 leukemia"}, "NCI/ADR-RES ovarian": {"system": "NCI/ADR-RES ovarian"}, "M14 melanoma": {"system": "M14 melanoma"}, "ACHN renal": {"system": "ACHN renal"}},
  "note": "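Each compound was tested at five concentrations against cells in 96-well plates for 48 hours. TGI: total growth inhibition.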 The source holds more than one record for some entries. They are shown here; other results are not. The source may hold further records. For part of these data: The tests behind the records often covered other concentration ranges, which the source does not state; a value can be the end of its range. For part of these data: Results that share an entry repeat one measurement (runs, samples, wells, individuals or studies). Marks in square brackets tell the records apart. Letters hold for one entry only.",
  "data": [
    {"smiles": "O=C(CCl)Nc1ccc(C(=O)N/N=C/c2ccc(Cl)cc2)cc1", "values": [
      {"measurement": "TGI", "setting": "T-47D breast", "value": "6.83 µM and 438 nM"}
    ]},
    {"smiles": "COc1cc2c(c(OC)c1OC)-c1ccc(SC)c(=O)cc1[C@@H](NC(=O)c1ccc(F)cc1)CC2", "values": [
      {"measurement": "TGI", "setting": "SNB-19 CNS", "value": "62.8 nM and 16.3 µM"},
      {"measurement": "TGI", "setting": "SF-295 CNS", "value": "69.5 nM and 22.5 µM"}
    ]},
    {"smiles": "C=C1C(=O)C23CC1CCC2C12CO[C@@]3(O)[C@@H](O)C1C(C)(C)C=CC2=O", "note": "(stereo partly drawn)", "values": [
      {"measurement": "TGI", "setting": "HL-60(TB) leukemia", "value": "1.18 µM and > 100 µM"},
      {"measurement": "TGI", "setting": "SNB-19 CNS", "value": "4.92 µM and 56.7 µM"},
      {"measurement": "TGI", "setting": "MALME-3M melanoma", "value": "1.41 µM and 25.7 µM"},
      {"measurement": "TGI", "setting": "HCC-2998 colon", "value": "2.89 µM and 40.1 µM"},
      {"measurement": "TGI", "setting": "NCI-H460 lung", "value": "1.46 µM and 30 µM"},
      {"measurement": "TGI", "setting": "OVCAR-8 ovarian", "value": "653 nM and 14.4 µM"},
      {"measurement": "TGI", "setting": "CCRF-CEM leukemia", "value": "2.29 µM and > 100 µM"}
    ]},
    {"smiles": "CCCC(=O)Nc1cn(COC)c(C(=O)N2C[C@H]3C[C@@]34C2=CC(=O)c2[nH]cc(C)c24)n1", "values": [
      {"measurement": "TGI", "setting": "HL-60(TB) leukemia", "value": "4.52 µM and > 100 µM"},
      {"measurement": "TGI", "setting": "786-0 renal", "value": "50 µM and 4.65 µM"},
      {"measurement": "TGI", "setting": "MOLT-4 leukemia", "value": "2.79 µM and > 100 µM"},
      {"measurement": "TGI", "setting": "CCRF-CEM leukemia", "value": "3.37 µM and > 100 µM"}
    ]},
    {"smiles": "Oc1cccc(-c2nc(N3CCOCC3)c3oc4ncccc4c3n2)c1", "values": [
      {"measurement": "TGI", "setting": "HL-60(TB) leukemia", "value": "1.22 µM [sample A, 1 test] and > 100 µM [sample B, mean of 2 tests]"},
      {"measurement": "TGI", "setting": "NCI/ADR-RES ovarian", "value": "2.83 µM [sample A, 1 test] and > 37.8 µM [sample B, mean of 2 tests]"},
      {"measurement": "TGI", "setting": "M14 melanoma", "value": "3.09 µM [sample A, mean of 2 tests] and > 100 µM [sample B, 1 test]"},
      {"measurement": "TGI", "setting": "ACHN renal", "value": "4.11 µM [sample A, mean of 2 tests] and > 100 µM [sample B, 1 test]"}
    ]}
  ]
}
